Results: patent US20220372098A1 (Johns Hopkins, published 2022)

Key:
[1] = target: T1, biotinylated human IL-2Rα extracellular domain with C-terminal biotin acceptor peptide (human, UniProt P01589 22-240, biotinylated with BirA ligase on the C-terminal biotin acceptor peptide); assay: bio-layer interferometry (Octet), equilibrium titration on immobilized biotinylated human IL-2Rα
T1 construct: extracellular domain; Immobilized on streptavidin tips in BLI; also called hIL-2Rα; immobilized human IL-2Rα
T1 sequence: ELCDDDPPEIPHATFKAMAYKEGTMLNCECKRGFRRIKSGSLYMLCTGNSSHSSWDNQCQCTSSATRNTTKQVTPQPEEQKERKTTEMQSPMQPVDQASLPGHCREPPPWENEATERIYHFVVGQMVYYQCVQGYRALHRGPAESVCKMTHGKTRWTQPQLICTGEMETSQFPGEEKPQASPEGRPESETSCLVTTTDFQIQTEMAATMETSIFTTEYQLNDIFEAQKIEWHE
Description: (§1) Less than 5 signal units (nm) of receptor was immobilized to minimize mass transfer effects. […] Data was visualized and processed using the Octet® Data Analysis software version 7.1 (Molecular Devices).

[2] = target: T2, biotinylated human IL-2Rβ extracellular domain with C-terminal biotin acceptor peptide (human, UniProt P14784 27-240, biotinylated with BirA ligase on the C-terminal biotin acceptor peptide); assay: bio-layer interferometry (Octet), equilibrium titration on immobilized biotinylated human IL-2Rβ
T2 construct: extracellular domain; Immobilized on streptavidin tips in BLI; also called hIL-2Rβ; immobilized human IL-2Rβ
T2 sequence: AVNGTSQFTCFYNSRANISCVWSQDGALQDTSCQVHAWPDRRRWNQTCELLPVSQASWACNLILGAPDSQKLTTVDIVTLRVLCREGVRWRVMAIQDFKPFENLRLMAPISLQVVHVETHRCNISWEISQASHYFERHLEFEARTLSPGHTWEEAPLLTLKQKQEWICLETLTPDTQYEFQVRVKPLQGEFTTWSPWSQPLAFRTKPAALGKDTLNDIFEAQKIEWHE
Description: as §1

| Binder | binding result [1] | EC50 (read off the curve) [2] |
| --- | --- | --- |
| 602 immunocytokine: hIL-2 fused by a (G4S)2 linker to the N-terminus of the light chain of the full-length 602 antibody (other) heavy: EVQLQESGPGLVAPSQSLSITCTVSGFSLTNYDISWIRQPPGKGLEWLGVIWTGGGTNYNSGFMSRLSITKDNSKSQVFLKMNSLQTDDTAIYYCVRQGRTPYWGQGTLVTVSAAKTTAPSVYPLAPVCGDTTGSSVTLGCLVKGYFPEPVTLTWNSGSLSSGVHTFPAVLQSDLYTLSSSVTVTSSTWPSQSITCNVAHPASSTKVDKKIEPRGPTIKPCPPCKCPAPNLLGGPSVFIFPPKIKDVLMISLSPIVTCVVVDVSEDDPDVQISWFVNNVEVHTAQTQTHREDYNSTLRVVSALPIQHQDWMSGKEFKCKVNNKDLPAPIERTISKPKGSVRAPQVYVLPPPEEEMTKKQVTLTCMVTDFMPEDIYVEWTNNGKTELNYKNTEPVLDSDGSYFMYSKLRVEKKNWVERNSYSCSVVHEGLHNHHTTKSFSRTPGK light: [about 150 residues not spelt out]GGGGSGGGGSDIQVTQSPSSLSVSLGDRVTITCKASKDIYNRLAWYQQKPGNAPRLLISGATSLETGVPSRFSGSGSGKDYTLTITSLQTEDVATYYCQQFWGTPYTFGGGTKLEIKRADAAPTVSIFPPSSEQLTSGGASVVCFLNNFYPKDINVKWKIDGSERQNGVLNSWTDQDSKDSTYSMSSTLTLTKDEYERHNSYTCEATHKTSTSPIVKSFNRNEC | no binding (tested: about 1.6e-6 M) | ~20 nM |
| human IL-2 cytokine, soluble, with C-terminal hexahistidine tag (ligand, Made in HEK 293F cells; also called hIL-2; untethered hIL-2) not shown | – | ~100 nM |
